Measured values as given in PubChem BioAssay AID1508642 (National Center for Advancing Translational Sciences (NCATS), 2021).
Among all 43,000 compounds or so, about 200 (0.47%) were called active. Inconclusive results (about 12%) are left out. Calls follow the shape of the dose curve; as a rule, active = well fitted cell-killing curve with a large enough effect; inconclusive = small, poorly fitted or top-dose-only effect, or effect the other way; inactive = flat fitted curve, though single readings scatter. The list shows a part of the results.

Test: Cell viability qHTS assay in S16 Pmp22-F2sN cells; also: nearly all actives have a fitted effect of over 65% in size
Details: S16 Pmp22-F2sN Schwann cells viability, CellTiter-Glo, 24 h; series mostly up to 57.5 µM; activity change, negative = cytotoxicity: at the top concentration
How it was run: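 Viability was measured by CellTiter-Glo luminescence (15 min, room temperature). This followed 24 h at 37 °C of compound exposure (23 nL pin transfer) in S16 Pmp22-F2sN Schwann cells, 500-1,000 per well.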
% is scaled to controls: 0 for no effect and ±100 for the full control effect; potency is read from the fitted curve at half-maximal effect.

SMILES	activity change, negative = cytotoxicity	Potency
CCOc1ccc(C(=O)NCc2ccc3c(c2)CCN3C(=O)c2ccccc2)cc1	inactive: -17.9%	
COc1ccc(-c2onc(C)c2C)cc1S(=O)(=O)NCc1ccco1	inactive: -8.49%	
CCc1ccc(CNC(=O)c2ccc3c(c2)nc2n3CCC(C)C2)cc1 (stereo not given)	inactive: -3.6%	
COc1cccc(C(=O)Nc2cccc(OCc3cc(=O)n4cc(C)ccc4n3)c2)c1	inactive: 7.76%	
CCOc1cc(C2c3c(oc4ccc(F)cc4c3=O)C(=O)N2Cc2ccc(C)cc2)ccc1O (stereo not given)	inactive: -6.13%	
COc1ccc(C2CC(=O)c3c([nH]c(C(=O)OCc4ccccc4)c3C)C2)cc1OC (stereo not given)	inactive: -3.78%	
CCCCNC(=O)CSc1nc2n[nH]c(C)c2c(=N)n1-c1ccccc1CC	inactive: -21.2%	
O=C(COc1ccccc1F)Nc1nnc(S(=O)(=O)N2CCCCCC2)s1	inactive: -2.24%	
O=C(NCc1ccc(Cl)cc1)C1CCCN(c2ncnc3onc(-c4ccc(F)cc4)c23)C1 (stereo not given)	inactive: 6.84%	
Cc1cccc(NC(=O)c2c(Br)sc3c2CCCC3)c1	inactive: -1.32%	
COc1ccc(Nc2nnc(-c3ccc(C)c(S(=O)(=O)N4CCOCC4)c3)c3ccccc23)cc1	inactive: -19%	
CCCCNC(=O)C1CCN(Cc2nc(-c3ccc(OC)c(OC)c3)oc2C)CC1	inactive: 19.4%	
Cc1ccccc1Cc1c(C)nc2nc(SCC(=O)NC(C)c3ccccc3)nn2c1C (stereo not given)	inactive: -1.7%	
CCC1CN(C(=O)Nc2cccc3c2CCCC3)c2cc(C)ccc2O1 (stereo not given)	inactive: 0.672%	
CCOC(=O)c1c(C)oc2nc(C)nc(NCCCN3CCN(c4cccc(C)c4)C(C)C3)c12 (stereo not given)	inactive: 0.962%	
CCOc1ccc(-c2ccc(CO)o2)cc1N	inactive: 3.04%	
CCc1ccc(C2c3c(n[nH]c3C)C(=O)N2c2ccc(C)cc2)cc1 (stereo not given)	inactive: 7.97%	
O=C(NC1CCCC1)c1ccc2c(c1)N(Cc1ccc(F)cc1)C(=O)c1ccccc1S2	inactive: -7.26%	
Cc1ccc(CNC(=O)CN(c2cc(C)cc(C)c2)S(=O)(=O)c2c(C)[nH]c(=O)[nH]c2=O)cc1	inactive: 2.53%	
Cc1ccc(N2CCN(C(=O)c3nn(C)c4c3CSc3ccccc3-4)CC2C)cc1 (stereo not given)	inactive: 12.1%	
COc1ccc(-c2noc(-c3ccccc3NC(=O)c3cc(OC)c(OC)c(OC)c3)n2)cc1	inactive: -0.281%	
O=S(=O)(Nc1nc2n(n1)C(c1ccccc1)C=C(c1ccc(Cl)cc1)N2)c1ccccc1 (stereo not given)	inactive: -0.158%	
COc1ccc(NC(=O)C(Cc2ccccc2)n2cccc2)c(OC)c1 (stereo not given)	inactive: -0.586%	
CC(C)CCNC(=O)CSc1nc2ccsc2c(=O)n1Cc1ccccc1Cl	inactive: 1.05%	

SMILES	activity change, negative = cytotoxicity	Potency
COc1ccc(CCNC(=O)C(=O)NCC(c2cccs2)S(=O)(=O)c2ccccc2)cc1 (stereo not given)	inactive: 0.569%	
Cc1ccc(SCC(=O)Nc2ccc3oc(-c4cccc(C)c4)nc3c2)cc1	inactive: 3.26%	
Cc1ccc(Cl)cc1NC(=O)CCS(=O)(=O)c1ccc(Br)s1	inactive: 13%	
CCOC(=O)c1noc2ncn(CC(=O)O)c(=O)c12	inactive: 22.7%	
CCN1C(=O)CC(C(=O)Nc2ccc(OC)cc2)SC1=Nc1ccc(C)c(C)c1 (stereo not given)	inactive: 7.64%	
Cc1ccc(NC(=O)c2ccco2)c(OCc2cc(=O)n3cc(C)sc3n2)c1	inactive: -3.2%	
COc1ccc(-n2c(=O)c3c4c(sc3n(Cc3cc(=O)n5c(C)cccc5n3)c2=O)CCC4)c(OC)c1	inactive: 3.37%	
CCC1CN(C(=O)NCc2ccc(F)cc2)c2ccccc2O1 (stereo not given)	inactive: 6.39%	
Cc1ccc(OCC(=O)Nc2ccc3nc(SCC(=O)N4CCCC4)sc3c2)cc1C	inactive: 5.49%	
Cc1ccc(Cn2c(=O)c3ccccc3n3c(-c4ccccc4)nnc23)cc1	inactive: 16.9%	
CCc1ccc(CNC(=O)CSCc2cnn(-c3ccccc3)c2-n2cccc2)cc1	inactive: 10.9%	
COc1ccc(C2CC(=O)N3CN(C4CCCCC4)CSC3=C2C#N)cc1 (stereo not given)	inactive: 11.6%	
CN(C)c1ccc(CNc2nc(-c3ccco3)nn2C(=O)c2cccc([N+](=O)[O-])c2)cc1	inactive: 11.1%	
CCCn1c(=O)c2sccc2n2c(CCCC(=O)NCCOC)nnc12	inactive: 14.5%	
COc1ccccc1NC(=O)CSc1ncc2c(n1)-c1cc(Cl)ccc1N(C)S2(=O)=O	inactive: -26.5%	
Cc1nc(N2CCCC2)ncc1C(=O)Nc1ccccc1	inactive: 0.0583%	
CC(C)CC(=O)Nc1ccc(C(=O)OCc2cc(=O)n3nc(C4CCCCC4)sc3n2)cc1	inactive: 1.86%	
COc1cccc(CN2C(=O)c3ccccc3C2C(=O)NCCc2ccc(OC)c(OC)c2)c1 (stereo not given)	inactive: 10.7%	
Cc1cc(O)c(C(c2cccc(Cl)c2)N2CCN(c3ccccc3)CC2)c(=O)n1Cc1ccco1 (stereo not given)	inactive: 3.27%	
CN(C)c1ccc(CN(CC2CCCO2)C(=O)COc2ccc(Cl)cc2)cc1 (stereo not given)	inactive: -0.212%	
CCc1ccc(-n2c(C)nc3cc(C(=O)NCCc4ccccc4)ccc32)cc1	inactive: 0.543%	
COCCCn1c(=N)c(C(=O)NC2CCCC2)cc2c(=O)n3ccccc3nc21	inactive: 9.3%	
Cc1ccc(CCNC(=O)CCSCc2ccc(Cl)cc2)cc1	inactive: 6.81%	
Cc1ccc(-c2nc3c4cnn(-c5cc(Cl)ccc5Cl)c4ncn3n2)cc1	inactive: 0.845%	

SMILES	activity change, negative = cytotoxicity	Potency
CC(C)Cc1nn2c(=O)cc(COC(=O)c3ccccc3NC(=O)c3ccccc3)nc2s1	inactive: 8.35%	
CC(=O)Nc1ccc(NC(=O)CN2C(=O)CN(C)C(=O)c3ccccc32)cc1	inactive: -1.74%	
CCOc1ccc(-n2c(SCc3nc(-c4ccccc4C)no3)nnc2-c2ccccc2)cc1	inactive: -3.22%	
CCCCC12CN3CC(C)(CN(C1)C3c1c(C)[nH]c(=O)[nH]c1=O)C2=O (stereo not given)	inactive: 7.07%	
COc1ccc(-c2cccc(NS(=O)(=O)c3cc(C)c(Cl)cc3C)c2)nn1	inactive: -1.95%	
CCN(CCCNC(=O)c1nn(-c2ccc(OC)cc2)c(=O)c2c1c1ccccc1n2C)c1cccc(C)c1	inactive: 23.1%	
Cc1cccc(Cn2c(C)c(C)c3cc(C(=O)NCc4ccc(C)o4)ccc32)c1	inactive: -25.7%	
CCOc1ccc(NC(=O)CN2C(=O)C(c3ccccc3)=NC23CCCCCC3)cc1	inactive: -8.84%	
CCOc1ccc(CN2C(=O)c3ccccc3Sc3ccc(C(=O)NCc4ccc(C)cc4)cc32)cc1	inactive: -2.62%	
COc1cccc(CSc2nc3n(n2)C(c2ccccc2C)C(C(=O)Nc2ccccc2OC)=C(C)N3)c1 (stereo not given)	inactive: 1.3%	
Cc1nc2nc(SCC(=O)NC(C)c3ccccc3)nn2c(C)c1Cc1c(F)cccc1Cl (stereo not given)	inactive: 3.81%	
Cc1cccc(C(=O)Nc2ccc(N3CCC(CCN4CCOCC4)CC3)c(C(=O)O)c2)c1	inactive: -0.585%	
O=C(Nc1ccc(S(=O)(=O)N2CCC(c3nc4ccccc4s3)CC2)cc1)c1ccccc1F	inactive: 9.29%	
CCOC(=O)c1nc(Nc2cccc(C)c2)c2ccccc2n1	inactive: 7.04%	
CCCCCOc1ccc(C(=O)N(Cc2ccccc2)C2CCS(=O)(=O)C2)cc1 (stereo not given)	inactive: -2.67%	
CCOc1ccc(CNC(=O)CCn2cccn2)cc1OC	inactive: 8.37%	
CCN(C(=O)NCc1noc2ccccc12)c1cc(C)ccc1C	inactive: -0.508%	
Cc1ccccc1-c1noc(CSc2nnc(Cc3ccccc3)n2-c2ccc(F)cc2)n1	inactive: -19.7%	
CCC(C)n1c(=N)c(S(=O)(=O)c2ccc(C)cc2)cc2c(=O)n3cc(C)ccc3nc21 (stereo not given)	inactive: -2.3%	
CCOC(=O)N1CCc2c(sc(NCc3ccc(OC)c(Br)c3)c2C(=O)Nc2cc(OC)ccc2OC)C1	inactive: 22.7%	
CCOC(=O)c1ccccc1NC(=O)N(Cc1ccc(C)cc1)Cc1cccn1-c1nnc(N2CCCC2=O)s1	inactive: 0.0247%	
COc1cccc(NC(=O)Cn2c(=O)n(CCCC(=O)NCc3ccc4c(c3)OCO4)c(=O)c3ccccc32)c1	inactive: 17.8%	
Cc1ccc(CNC(=O)c2c(-c3ccccc3F)noc2C)o1	inactive: -10.6%	
CC(C)CCn1c(SCc2ccc(F)cc2Cl)nc2ccsc2c1=O	inactive: 17.6%	

SMILES	activity change, negative = cytotoxicity	Potency
CC1=C(C(=O)Nc2ccccc2)C(c2ccc(C(=O)O)cc2)n2nc(SCC(=O)c3ccc(C)cc3)nc2N1 (stereo not given)	inactive: -3.5%	
CCc1ccc(-c2[nH]c3c(c2-c2c(-n4cccc4)n(C)c(=O)n(C)c2=O)c(=O)n(C)c(=O)n3C)cc1	inactive: 18.5%	
CCN(CC)CCn1c(=N)n(CC(O)COc2ccccc2C)c2ccccc21 (stereo not given)		active: 28.2 µM
Cc1ccc(Cn2c(=O)c3c(nc4n3CCN4c3cc(C)cc(C)c3)n(C)c2=O)cc1	inactive: 5.38%	
Cc1ccc(-n2ncc3c(NNC(=O)c4ccccc4C)ncnc32)cc1	inactive: 9.87%	
COc1ccc(-c2c(C)nn3c(N4CCC(C(=O)NCCC(C)C)CC4)cc(C)nc23)cc1OC	inactive: 6.43%	
CC(C)c1ccc(C2c3c(-c4ccccc4O)n[nH]c3C(=O)N2CCc2ccccc2)cc1 (stereo not given)	inactive: -4.31%	
CCCN1CCN(CC2=C(C(=O)OCC)C(c3ccc(Cl)cc3)NC(=O)N2)CC1 (stereo not given)	inactive: -9.33%	
COc1ccc(Cl)cc1NC(=O)CCCn1c(=O)c2cccn2c2cccnc21	inactive: -0.906%	
COc1ccc(CNC(=O)Cc2c(C)c3c(cc(C)c4c(C)coc43)oc2=O)cc1	inactive: 0.942%	
COc1ccc(-c2nc(CCNC(=O)c3cc(OC)c(OC)c(OC)c3)cs2)cc1	inactive: 0.8%	
COCCCNC(=O)c1ccc(NC(=O)N2CCCCc3ccccc32)cc1	inactive: 19.4%	
Cc1c(C(=O)NCCN(C)C)oc2c1-c1nn(Cc3ccccc3Cl)cc1CC2	inactive: -3.43%	
CCOC(=O)c1ccc(Nc2nc(C)cc(C)n2)cc1	inactive: -4.11%	
CC(Sc1nc(-c2ccccc2)c(C#N)c(=O)[nH]1)C(=O)Nc1ccc(F)cc1 (stereo not given)	inactive: 4.09%	
COc1ccc(N(CC(=O)N2CCN(c3cc(C)ccc3C)CC2)S(=O)(=O)c2c(C)noc2C)cc1	inactive: 1.71%	
COc1ccccc1-c1c(C)nn2c(N3CCN(c4ccc(Cl)cc4)CC3)cc(C)nc12	inactive: -2.83%	
COC(=O)c1ccc2nc(C)cc(Nc3ccc(O)cc3)c2c1	inactive: 2.48%	
CC(Sc1ncc(S(=O)(=O)c2ccc(C(C)C)cc2)c(N)n1)C(=O)Nc1ccccc1 (stereo not given)	inactive: 5.13%	
COc1ccc(NC(=O)Cn2c(=O)n(-c3ccc(Cl)cc3)c(=O)c3c(C)c(C(=O)N(C)C)sc32)cc1Cl	inactive: -6.51%	
Cc1ccc(CSc2nc(=O)c3c(C)cc(C)nc3n2C2CC2)cc1	inactive: -20.6%	
O=C(NC1CC(=O)N(c2ccccc2)C1)C1CCCC1 (stereo not given)	inactive: 3.57%	
Cc1ccc2c(c1)c(=O)c1ccccc1n2CCCC(=O)Nc1ccc(F)cc1F	inactive: -21.4%	
